The list shows a part of the results. Cut-off read from the data, not from the text of the source: active = 3.2 or more and inactive = the rest. The signal is at background level for most entries.
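Note: displayed peptides selected on beads carrying the immobilized SH2 domain, with library peptides lacking any tyrosine serving as negative controls.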

The target of one assay is SHP2 C-SH2 domain E139D. Nature of the assay: enrichment score (SH2-bound / input frequency) (ratio); bacterial display of known human phosphotyrosine sites (pTyr-Var adds point mutants) read by sequencing; higher = stronger binding; tyrosines were phosphorylated by kinases first. The settings on record: peptide library: pTyr-Var.
Turning to SNKELYEKYMI [TTN_Y32175_T32171N], the enrichment score is inactive: 1.02.
In the case of PPSGEYFGQCG [TRIP6_Y275], the enrichment score is inactive: 0.816.
On the same count and under the same terms, in the case of VCDALYPPGPP [TTN_Y25928_A25923V] it was inactive: 0.927; in that of STKELYEKFMI [TTN_Y32175_YF], inactive: 1.07.
Still for that read-out and setting: next, TENAGYYFRIS [TTN_Y31721_V31725I]: inactive: 0.886; LANNEYYFRVC [TTN_Y18997]: inactive: 0.687.
Same read-out and setting: next, WAKPEYTGGFK [TTN_Y22309]: inactive: 0.869; DSEIRYLSADS [TTF1_Y476]: inactive: 0.518; LESILYESSVV [TRPV4_Y91_T89I]: inactive: 1.38.
For the molecule RGGWVYVLHPT [TRMT61A_Y67], the enrichment score is inactive: 1.07.
The same measure, in the same setting: next, TENAGYFFRVS [TTN_Y31721_YF]: inactive: 0.753; DTMQTYNGNDE [TSPAN7_Y131_A127T]: inactive: 0.531; GSQERYFELVE [TSC2_Y407]: inactive: 0.863.
Take SEDANYKRVSC [TTC3_Y1288]: the enrichment score was inactive: 0.611.
Same read-out and setting: in the case of PGVNYYFQVSA [TTN_Y28166_R28168Q] it was inactive: 1.26; in that of ARMTNYGLPRY [TSPAN12_Y138], inactive: 0.529; in that of VHVEVYDPPSP [TTN_Y16422_R16424P], inactive: 0.951.
Same read-out and setting: next, PCNLIYFGEHP [TRPV6_Y201]: inactive: 0.728.

The next assay concerns the target SHP2 C-SH2 domain wild-type. Described as above. The following applies: peptide library: pTyr-Var.
As for SNKELYEKYMI [TTN_Y32175_T32171N], the enrichment score is inactive: 0.785.
Same read-out and setting: next, PPSGEYFGQCG [TRIP6_Y275]: inactive: 0.965.
The same measure, in the same setting: next, VCDALYPPGPP [TTN_Y25928_A25923V]: inactive: 0.921; STKELYEKFMI [TTN_Y32175_YF]: inactive: 1.02.
Regarding TENAGYYFRIS [TTN_Y31721_V31725I], the enrichment score was inactive: 0.919.
In the case of LANNEYYFRVC [TTN_Y18997], the enrichment score is inactive: 1.07.
The same measure, in the same setting: next, WAKPEYTGGFK [TTN_Y22309]: inactive: 1.16; DSEIRYLSADS [TTF1_Y476]: inactive: 0.538.
Still for that read-out and setting: in the case of LESILYESSVV [TRPV4_Y91_T89I] it was inactive: 1.14; in that of RGGWVYVLHPT [TRMT61A_Y67], inactive: 1.31; in that of TENAGYFFRVS [TTN_Y31721_YF], inactive: 0.585.
With DTMQTYNGNDE [TSPAN7_Y131_A127T], the enrichment score was inactive: 0.501.
The same measure, in the same setting: next, GSQERYFELVE [TSC2_Y407]: inactive: 0.845; SEDANYKRVSC [TTC3_Y1288]: inactive: 0.734.
PGVNYYFQVSA [TTN_Y28166_R28168Q]: the enrichment score was inactive: 1.55.
Consider ARMTNYGLPRY [TSPAN12_Y138], for which the enrichment score was inactive: 0.496.
On the same count and under the same terms, next, VHVEVYDPPSP [TTN_Y16422_R16424P]: inactive: 1.03; PCNLIYFGEHP [TRPV6_Y201]: inactive: 0.815.

A further assay concerns the target SHP2 N-SH2 domain L43F. Described as above. The following applies: peptide library: pTyr-Var.
In the case of SNKELYEKYMI [TTN_Y32175_T32171N], the enrichment score was inactive: 0.799.
The same measure, in the same setting: next, PPSGEYFGQCG [TRIP6_Y275]: inactive: 0.583.
Still for that read-out and setting: in the case of VCDALYPPGPP [TTN_Y25928_A25923V] it was inactive: 0.729; in that of STKELYEKFMI [TTN_Y32175_YF], inactive: 1.23.
Turning to TENAGYYFRIS [TTN_Y31721_V31725I], the enrichment score was inactive: 0.755.
The same measure, in the same setting: next, LANNEYYFRVC [TTN_Y18997]: inactive: 0.752; WAKPEYTGGFK [TTN_Y22309]: inactive: 0.925; DSEIRYLSADS [TTF1_Y476]: inactive: 0.684.
LESILYESSVV [TRPV4_Y91_T89I]: the enrichment score is inactive: 1.23.
The same measure, in the same setting: in the case of RGGWVYVLHPT [TRMT61A_Y67] it was inactive: 0.991; in that of TENAGYFFRVS [TTN_Y31721_YF], inactive: 0.605.
The same measure, in the same setting: in the case of DTMQTYNGNDE [TSPAN7_Y131_A127T] it was inactive: 0.514; in that of GSQERYFELVE [TSC2_Y407], inactive: 0.835; in that of SEDANYKRVSC [TTC3_Y1288], inactive: 0.609.
Same read-out and setting: in the case of PGVNYYFQVSA [TTN_Y28166_R28168Q] it was inactive: 1.37.
Turning to ARMTNYGLPRY [TSPAN12_Y138], the enrichment score was inactive: 0.616.
As to VHVEVYDPPSP [TTN_Y16422_R16424P], the enrichment score was inactive: 1.05.
Consider PCNLIYFGEHP [TRPV6_Y201], for which the enrichment score is inactive: 0.972.

For the next assay, the target named is SHP2 N-SH2 domain T42A. Described as above. The following applies: peptide library: pTyr-Var.
On to SNKELYEKYMI [TTN_Y32175_T32171N], for which the enrichment score was inactive: 0.712.
With PPSGEYFGQCG [TRIP6_Y275], the enrichment score is inactive: 0.6.
Same read-out and setting: next, VCDALYPPGPP [TTN_Y25928_A25923V]: inactive: 0.625.
On the same count and under the same terms, next, STKELYEKFMI [TTN_Y32175_YF]: inactive: 0.923; TENAGYYFRIS [TTN_Y31721_V31725I]: inactive: 0.717; LANNEYYFRVC [TTN_Y18997]: inactive: 0.633.
Still for that read-out and setting: next, WAKPEYTGGFK [TTN_Y22309]: inactive: 0.97; DSEIRYLSADS [TTF1_Y476]: inactive: 0.585; LESILYESSVV [TRPV4_Y91_T89I]: inactive: 0.899.
On to RGGWVYVLHPT [TRMT61A_Y67], for which the enrichment score is inactive: 1.07.
The same measure, in the same setting: next, TENAGYFFRVS [TTN_Y31721_YF]: inactive: 0.586.
The same measure, in the same setting: in the case of DTMQTYNGNDE [TSPAN7_Y131_A127T] it was inactive: 0.452; in that of GSQERYFELVE [TSC2_Y407], inactive: 0.641; in that of SEDANYKRVSC [TTC3_Y1288], inactive: 0.482.
The same measure, in the same setting: in the case of PGVNYYFQVSA [TTN_Y28166_R28168Q] it was inactive: 1.13.
For the molecule ARMTNYGLPRY [TSPAN12_Y138], the enrichment score was inactive: 0.449.
Turning to VHVEVYDPPSP [TTN_Y16422_R16424P], the enrichment score was inactive: 0.909.
The same measure, in the same setting: in the case of PCNLIYFGEHP [TRPV6_Y201] it was inactive: 0.723.

For a further assay, the target named is SHP2 N-SH2 domain T52S. Described as above. The settings on record: peptide library: pTyr-Var.
As for SNKELYEKYMI [TTN_Y32175_T32171N], the enrichment score was inactive: 1.07.
Still for that read-out and setting: next, PPSGEYFGQCG [TRIP6_Y275]: inactive: 0.772; VCDALYPPGPP [TTN_Y25928_A25923V]: inactive: 0.747.
The same measure, in the same setting: in the case of STKELYEKFMI [TTN_Y32175_YF] it was inactive: 1.09.
The same measure, in the same setting: next, TENAGYYFRIS [TTN_Y31721_V31725I]: inactive: 0.636; LANNEYYFRVC [TTN_Y18997]: inactive: 0.638.
As for WAKPEYTGGFK [TTN_Y22309], the enrichment score was inactive: 1.23.
On the same count and under the same terms, next, DSEIRYLSADS [TTF1_Y476]: inactive: 0.547; LESILYESSVV [TRPV4_Y91_T89I]: inactive: 1.16; RGGWVYVLHPT [TRMT61A_Y67]: inactive: 1.29.
Still for that read-out and setting: next, TENAGYFFRVS [TTN_Y31721_YF]: inactive: 0.799; DTMQTYNGNDE [TSPAN7_Y131_A127T]: inactive: 0.328; GSQERYFELVE [TSC2_Y407]: inactive: 0.775.
The same measure, in the same setting: in the case of SEDANYKRVSC [TTC3_Y1288] it was inactive: 0.639; in that of PGVNYYFQVSA [TTN_Y28166_R28168Q], inactive: 1.12; in that of ARMTNYGLPRY [TSPAN12_Y138], inactive: 0.623.
With VHVEVYDPPSP [TTN_Y16422_R16424P], the enrichment score was inactive: 1.39.
On the same count and under the same terms, next, PCNLIYFGEHP [TRPV6_Y201]: inactive: 0.913.

The target in a further assay is SHP2 N-SH2 domain wild-type. The assay is described as above. The following applies: peptide library: pTyr-Var.
Turning to SNKELYEKYMI [TTN_Y32175_T32171N], the enrichment score is inactive: 1.06.
For the molecule PPSGEYFGQCG [TRIP6_Y275], the enrichment score was inactive: 0.96.
On the same count and under the same terms, next, VCDALYPPGPP [TTN_Y25928_A25923V]: inactive: 0.943; STKELYEKFMI [TTN_Y32175_YF]: inactive: 1.09.
Still for that read-out and setting: in the case of TENAGYYFRIS [TTN_Y31721_V31725I] it was inactive: 0.849.
On to LANNEYYFRVC [TTN_Y18997], for which the enrichment score was inactive: 1.26.
On the same count and under the same terms, in the case of WAKPEYTGGFK [TTN_Y22309] it was inactive: 1.26; in that of DSEIRYLSADS [TTF1_Y476], inactive: 0.593.
Same read-out and setting: in the case of LESILYESSVV [TRPV4_Y91_T89I] it was inactive: 0.96; in that of RGGWVYVLHPT [TRMT61A_Y67], inactive: 1.33; in that of TENAGYFFRVS [TTN_Y31721_YF], inactive: 0.769.
Still for that read-out and setting: in the case of DTMQTYNGNDE [TSPAN7_Y131_A127T] it was inactive: 0.393; in that of GSQERYFELVE [TSC2_Y407], inactive: 0.98.
Turning to SEDANYKRVSC [TTC3_Y1288], the enrichment score was inactive: 0.775.
As for PGVNYYFQVSA [TTN_Y28166_R28168Q], the enrichment score was inactive: 1.45.
Still for that read-out and setting: in the case of ARMTNYGLPRY [TSPAN12_Y138] it was inactive: 0.632; in that of VHVEVYDPPSP [TTN_Y16422_R16424P], inactive: 1.1.
On the same count and under the same terms, next, PCNLIYFGEHP [TRPV6_Y201]: inactive: 0.735.

The record behind these values is the supplement of paper PMC10369915.
